# Measured values: publication PMC4336329 (PLoS ONE, 2015)
# Screen size: about 310,000 compounds; about 14,000 (4.5%) showed an effect of 50% or more. Effects have a minus sign here. The list shows a part of the results.
# Biological target: human ether-à-go-go-related gene (hERG) potassium channel (human, UniProt Q12809)
# Assay: primary screen, population patch clamp on CHO cells stably expressing hERG
# 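Note: peak tail current of the secondary pulse compared with the same well before compound.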
# Chain of human ether-à-go-go-related gene (hERG) potassium channel (Q12809 whole entry, looked up): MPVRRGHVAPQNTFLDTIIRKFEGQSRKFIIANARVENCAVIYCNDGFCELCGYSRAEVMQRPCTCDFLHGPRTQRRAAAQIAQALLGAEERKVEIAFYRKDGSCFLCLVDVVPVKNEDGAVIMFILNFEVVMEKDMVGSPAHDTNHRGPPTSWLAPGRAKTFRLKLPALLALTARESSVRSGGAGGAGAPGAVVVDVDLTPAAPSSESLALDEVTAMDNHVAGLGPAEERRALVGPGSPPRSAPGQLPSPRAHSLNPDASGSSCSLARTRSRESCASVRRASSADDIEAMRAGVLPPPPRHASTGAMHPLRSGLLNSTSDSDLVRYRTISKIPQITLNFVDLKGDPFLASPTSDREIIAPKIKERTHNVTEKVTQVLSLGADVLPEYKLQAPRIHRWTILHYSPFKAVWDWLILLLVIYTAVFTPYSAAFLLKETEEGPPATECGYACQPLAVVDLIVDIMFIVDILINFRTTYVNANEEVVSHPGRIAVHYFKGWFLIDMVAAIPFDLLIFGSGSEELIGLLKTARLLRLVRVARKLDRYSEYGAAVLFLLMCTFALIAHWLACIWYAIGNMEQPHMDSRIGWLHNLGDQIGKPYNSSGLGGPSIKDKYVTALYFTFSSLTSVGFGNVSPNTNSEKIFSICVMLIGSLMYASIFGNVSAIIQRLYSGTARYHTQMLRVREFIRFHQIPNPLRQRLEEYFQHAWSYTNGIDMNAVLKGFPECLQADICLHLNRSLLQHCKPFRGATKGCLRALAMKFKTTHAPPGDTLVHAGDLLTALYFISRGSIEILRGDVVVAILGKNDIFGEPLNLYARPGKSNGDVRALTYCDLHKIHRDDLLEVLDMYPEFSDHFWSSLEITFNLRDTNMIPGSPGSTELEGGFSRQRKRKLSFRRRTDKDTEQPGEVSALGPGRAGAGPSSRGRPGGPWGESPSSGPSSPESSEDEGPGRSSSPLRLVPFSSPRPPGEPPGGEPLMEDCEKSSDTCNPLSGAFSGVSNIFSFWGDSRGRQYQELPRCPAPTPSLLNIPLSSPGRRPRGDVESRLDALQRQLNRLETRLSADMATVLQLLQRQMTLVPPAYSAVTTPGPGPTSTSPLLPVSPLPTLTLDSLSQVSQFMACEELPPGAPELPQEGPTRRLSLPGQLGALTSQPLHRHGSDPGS
row,Compound,"hERG current change (%, negative = inhibition) at 10uM [%]"
1,Cc1ccc(S(=O)(=O)NCc2ccco2)cc1C,-11.9
2,NNC(=O)c1nc[nH]c1C(=O)Nc1ccccc1[N+](=O)[O-],29.2
3,C#CCOCCOCCOCCNc1nc(N2CCN(C(=O)CCCCCCCCCCNC(=O)[C@H](CCCCN)n3cc(C)nn3)CC2)nc(N2CCN(C(=O)CCCCCCCCCCNC(=O)[C@H](CCCCN)n3cc(CCCC(=O)O)nn3)CC2)n1,9.15
4,O=C(c1ccccc1NS(=O)(=O)c1ccc(F)cc1)N1CCCCC1,-4.35
5,C=CCN1C(=O)C(=O)N(CC(=O)c2ccc3c(c2)CCCC3)C1=O,-3.16
6,Cc1ccc2oc(C(=O)N(CCO)Cc3ccccc3)c(C)c2c1,0.289
7,Cc1ccccc1-c1nc(CN2CCC(C(=O)NCCCN3CCCC3)CC2)c(C)o1,14.4
8,COC(=O)c1cccc(NC(=S)NC(C)C)c1,15.3
9,N[C@@]12CCc3nonc3[C@]1(O)CC(c1ccccc1)=[N+]2[O-],-0.645
10,COc1cc(C2NC(=S)NC(c3ccccc3)=C2C(C)=O)cc(Br)c1OCC(N)=O (stereo not drawn),11.5
11,O=C(N1CCOCC1)C12CCC3CC(CC(C3)C1)C2,-4.11
12,O=S(=O)(NC1CCCCC1Oc1ccccc1)c1ccccc1 (stereo not drawn),-3.79
13,Cc1ccc(C)c(NC(=O)CCc2nnc3ccc(N4CCCC4)nn23)c1,-12.1
14,CCOc1ccc(NC(=S)Nc2ccc(C)c([N+](=O)[O-])c2)cc1.Cl,17.7
15,Nc1nc(-c2ccccn2)nc(N)c1Cc1ccccc1F,-13.4
16,CC(C)(C)NC(=O)C1Cc2ccccc2CN1 (stereo not drawn),18.9
17,Cc1cc(Cl)ccc1OCC(=O)NCCCCc1ccccc1,12.2
18,CCC(C)(C)NC(=O)CN(Cc1ccc2c(c1)OCO2)C(=O)CCC(=O)Nc1nccs1,-13.5
19,CC(=O)N/C(=C/c1ccc2c(c1)OCO2)C(=O)NC(Cc1ccccc1)C(=O)O (stereo not drawn),2.76

row,Compound,"hERG current change (%, negative = inhibition) at 10uM [%]"
1,CN1CCN(c2ccc(NC(=O)N3CCc4ccccc43)cc2)CC1,-18.3
2,Cc1ccc(-c2cc(NC(=O)c3ccccc3)on2)cc1,18.2
3,Cc1ccc(C(CNS(=O)(=O)c2ccc(C)cc2)N2CCN(C)CC2)cc1 (stereo not drawn),-62.8
4,CCOc1ncccc1C(=O)NNC(=O)c1ccccc1-n1cccc1,17
5,COCCSc1ccccc1C(=O)N1CCN(Cc2ccccc2)CC1,-1.04
6,COC(=O)CC1=NC(=O)CS1,0.623
7,O=C(CSc1ncccn1)Nc1cc(Cl)ccc1[N+](=O)[O-],25.1
8,O=C(CSc1nnc(C2CC2)n1Cc1ccccc1)N1CCN(S(=O)(=O)c2ccccc2)CC1,-19.9
9,O=C(COC(=O)c1ccccc1-n1cnnn1)c1ccc(F)c(F)c1,-3.28
10,COCC(C)NC(=O)Cn1c(SCc2ccccc2)nc2ccccc21 (stereo not drawn),2.51
11,c1ccc2sc(C3CCCNC3)nc2c1 (stereo not drawn),-2.43
12,COC(=O)c1ccncc1C(=O)Nc1ccc(F)cc1,25.4
13,Cc1nnc(SCC(=O)N2CCOCC2)s1,-0.727
14,C=CCNC(=O)c1onc(CS(=O)(=O)c2cc(C)cc(C)c2)c1C(=O)NCC=C,-8.18
15,CCCSc1nc(=O)n2cc(C)ccc2n1,-10.3
16,O=C(Nc1ccncc1)c1cc(F)cc(F)c1,-8.15
17,O=C(NC(C(=O)NCCN1CCOCC1)C12CC3CC(CC(C3)C1)C2)C1CCCCC1 (stereo not drawn),3.03
18,Cc1cc(C(=O)NCc2ccco2)sc1C,16.2
19,Cc1cc(O)c(CN2CCN(c3ccccc3)CC2)cc1C,3.98

row,Compound,"hERG current change (%, negative = inhibition) at 10uM [%]"
1,Cc1nc(NC(=O)CCc2ccccc2)ccc1Br,-5.7
2,CCOC(=O)c1c([N+](=O)[O-])c(C)[nH]c(=O)c1C#N,21.1
3,COc1cc(SC)ccc1C(=O)N(CC(=O)Nc1ccccc1Br)Cc1ccco1,-10.4
4,COc1cc(/C=C2\CCCc3c2nc2ccccc2c3C(=O)O)cc(Br)c1O,-4.39
5,CCOC(=O)C1CCN(Cc2nc3ccc([N+](=O)[O-])cc3c(=O)n2-c2ccc(OC)cc2OC)CC1,-53.8
6,CCC(=O)N1C(=O)C2(Nc3ccccc3N2)c2ccccc21,7.41
7,CCn1c(C)cc(C)c(C#N)c1=O,35.2
8,O=C(CSc1n[nH]c(-c2cccnc2)n1)Nc1ccc([N+](=O)[O-])cc1,-24.6
9,Cc1cccc(CC(C)NC(=O)c2cc(COc3ccc(C)c(C)c3)on2)n1 (stereo not drawn),-9.05
10,COc1ccc(OC)c(S(=O)(=O)CC(O)CS(=O)(=O)c2ccccc2)c1 (stereo not drawn),13.8
11,Cc1ccc2[nH]c(CN3CCN(C)C(CCO)C3)c(C)c2c1 (stereo not drawn),-13.1
12,Cn1c(SCC(=O)N/N=C/c2cc([N+](=O)[O-])ccc2O)nnc1-c1ccccc1,10.5
13,O=C(Cn1ccc(C(F)(F)F)n1)N/N=C/c1cccs1,4.49
14,O=C(NCCc1ccc(Cl)cc1)c1cnc2n(c1=O)CCS2,-20.3
15,O=C(Nc1ccccc1O)/C(=C\c1ccccc1)NC(=O)c1ccccc1,-39.2
16,O=C(N/C(=C/c1ccc(Br)cc1)C(=O)N1CCCC1=O)c1ccco1,-42.4
17,Cc1cc(=S)[nH]c(=S)[nH]1,6.98
18,CN(CC(=O)Nc1ccccc1Cl)C(=O)COc1cccc2c1OC(C)(C)C2,1.77
19,Cc1cc(OCC(=O)NC2CC2)c2c(C)c(C)c(=O)oc2c1,15.5
